Measured values reported in PubChem BioAssay (NCATS).
“And” between values parts separate entries of the source, which are not always exact repeats. Equal entries are not always repeated. The list shows a part of the results. These are further read-outs of the screen, such as a control signal, another cell line or another target. No call is given for them. Compounds called inactive in the main read-out are mostly missing here. The note in brackets gives the kind of curve behind each potency; many fits are weak.

Assay: qHTS Assay for Lipid Storage Modulators (AID 1519)
Conditions: Drosophila S3 cells, BODIPY lipid droplet/cell ratio, laser cytometry, cells loaded with oleic acid
How it was run: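 Cells seeded at 5,000 per well were treated with compounds over a concentration series and loaded with oleic acid (400 uM, as added). Lipid droplet fluorescence (488 nm excitation, 500-530 nm channel) was read by laser-scanning cytometry and normalized to 20 uM Triacsin C.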

[1] = measured here: cell count channel max response
[2] = measured here: cell number channel AC50
[3] = measured here: lipid (BODIPY) channel AC50
[4] = measured here: lipid channel max response
Tags tell the direction and shape of the fitted curve.

SMILES	max response [1]	AC50 [2]	AC50 [3]	max response [4]
Cc1noc(C)c1-c1nccc(N2CCN(C)CC2)n1	18%	1.12 µM [rising, full curve, poor fit]	1.78 µM [rising, partial curve, poor fit]	22.5%
COc1ccccc1-c1nccc(N2CCN(C)CC2)n1	32.3%	5.62 µM [rising, full curve]	7.08 µM [rising, full curve]	36.6%
COc1cccc(Cn2c(=O)c(-c3cn(C)c4ccccc34)nc3cnc(N4CCOCC4)nc32)c1	38.3%	10 µM [rising, partial curve]	11.2 µM [rising, partial curve]	42.1%
CCSC(N)=Nc1ccc(C(F)(F)F)cc1	-36.6%	50.1 µM [falling, single point]	89.1 µM [falling, single point]	-44%
CC(=O)N1CCC[C@@]2(CCN(c3ccccc3)C2)C1	27.1%	0.141 µM [rising, full curve]	0.1 µM [rising, full curve]	11.7%
COc1cccc(-c2cncnc2NCc2cccs2)c1	33.6%	10 µM [rising, partial curve]	5.62 µM [rising, partial curve]	39.5%
COc1ccc(-n2c(=O)c(C)nc3cnc(Oc4cccc(Cl)c4)nc32)cc1	38.3%	0.2 µM [rising, full curve, poor fit]	0.0794 µM [rising, full curve, poor fit]	53.5%
N#Cc1cccc(-c2cncnc2NCc2ccccc2)c1	26.3%	6.31 µM [rising, partial curve, poor fit]	5.62 µM [rising, partial curve]	31.2%
COc1cccc2oc(-c3ccc(O)cc3)cc(=O)c12	123%	7.94 µM [rising, partial curve]	10 µM [rising, partial curve]	158%
Oc1cc2c(c(Cl)c1O)CCNC[C@H]2c1ccccc1	43.3%	25.1 µM [rising, partial curve, poor fit]	25.1 µM [rising, partial curve]	50%
COc1ccccc1CNc1cc(-c2ccccc2C)ncn1	19.3%	2.51 µM [rising, partial curve]	1.78 µM [rising, partial curve]	19%
CC(C)NC(=O)N1CCCC2(CCN(C(=O)c3csnn3)CC2)C1	28.3%	0.00501 µM [rising, full curve, poor fit]	0.00562 µM [rising, full curve, poor fit]	32.6%
CCNc1ncc2nc(-c3cccc(C#N)c3)c(=O)n(CCC#N)c2n1	56.5%	39.8 µM [rising, single point]	25.1 µM [falling, single point]	-31.6%
NCCOB(c1ccccc1)c1ccccc1	44.4%	1.78 µM [rising, full curve]	1 µM [rising, full curve, poor fit]	26.2%
COc1ccc(-n2c(=O)c(-c3cc(F)cc(F)c3)nc3cncnc32)cc1	36.1%	0.631 µM [rising, full curve]	0.631 µM [rising, full curve]	38.7%
COCCn1c(=O)c(-c2cccs2)nc2cnc(N3CCNCC3)nc21	40.1%	7.08 µM [rising, full curve]	4.47 µM [rising, full curve]	47.7%
COc1cc(Cc2cnc(N)nc2N)cc(OC)c1OC	42.4% and 25.5% and 46.6%	0.708 µM [rising, full curve, poor fit]	20 µM [rising, partial curve, poor fit]	37.4% and 37.1% and 43.3%
CC(=O)C1=C(O)C=C2Oc3c(C(C)=O)c(O)c(C)c(O)c3[C@]2(C)C1=O	80.6%	35.5 µM [rising, partial curve, poor fit]	35.5 µM [rising, partial curve, poor fit]	103%
CCCNC(C)C(=O)Nc1ccccc1C (stereo not given)	14.4% and 48.5%	4.47 µM [falling, partial curve, poor fit]	39.8 µM [rising, single point] and 4.47 µM [falling, partial curve, poor fit]	32.1% and 49.8%
CN(C)c1ncc2nc(CCc3ccccc3)c(=O)n(C3CC3)c2n1	34.1%	3.16 µM [rising, full curve, poor fit]	2.82 µM [rising, full curve]	42.4%

SMILES	max response [1]	AC50 [2]	AC50 [3]	max response [4]
COc1ccc(C(=O)C2C3C4COC(O4)C(=O)C3C3C=Cc4ccccc4N32)c(OC)c1 (stereo not given)	75.8%	14.1 µM [rising, partial curve]	12.6 µM [rising, partial curve]	95.5%
CCn1nc(C(=O)O)c(=O)c2cc3c(cc21)OCO3	40.2% and 35.2%	5.01 µM [rising, full curve, poor fit]	5.01 µM [rising, full curve, poor fit]	40.5% and 48.7%
COC(=O)/C=C\c1cc(O)ccc1O	67.9%	35.5 µM [rising, single point]	31.6 µM [rising, partial curve, poor fit]	81.4%
O=C(c1c(O)c2ccc(Cl)cc2[nH]c1=O)C1CC1	85.5%	15.8 µM [rising, partial curve, poor fit]	17.8 µM [rising, partial curve]	115%
O=C(c1cc(C(F)(F)F)cc(C(F)(F)F)c1)N1CCC2(CCCN(c3ncccn3)C2)CC1	11%	1.78 µM [rising, full curve, poor fit]	1.26 µM [rising, partial curve]	13%
COc1ccc(CNc2ncncc2-c2ccccc2C(F)(F)F)c(OC)c1	34%	2.51 µM [rising, full curve, poor fit]	1.78 µM [rising, full curve, poor fit]	37.8%
C[C@@H](C1=C(CCN(C)C)Cc2ccccc21)c1ccccn1	60.7%	35.5 µM [rising, single point]	35.5 µM [rising, single point]	80.4%
COc1ccccc1-c1cc(-n2ccnc2)ncn1	48.3%	0.501 µM [rising, full curve, poor fit]	0.501 µM [rising, full curve, poor fit]	61.3%
CCNc1ncc2nc(-c3cccs3)c(=O)n(C[C@H]3CCCO3)c2n1	-1.84%	3.55 µM [rising, single point]	3.98 µM [rising, single point]	-9.31%
N[C@@H](Cc1ccc(O)c(I)c1)C(=O)O	49.7%	39.8 µM [rising, single point]	39.8 µM [rising, single point]	51%
CCCn1c(=O)c2[nH]c(-c3ccccc3)nc2n(CCC)c1=O	76.6%	1.78 µM [rising, full curve, poor fit]	1.78 µM [rising, full curve]	99.9%
O=S(=O)(c1ccccc1)N1CCC2(CCCN(Cc3nccs3)C2)CC1	31.7%	0.316 µM [rising, full curve, poor fit]	0.355 µM [rising, full curve]	34.7%
OC(CN1CCC(Cc2ccc(F)cc2)CC1)c1ccc(Cl)cc1 (stereo not given)	26.4%	11.2 µM [falling, partial curve, poor fit]	11.2 µM [falling, partial curve, poor fit]	25.8%
Cc1cnc(CNc2ncnc3ccc(-c4cccc(NS(C)(=O)=O)c4)cc23)cn1	30.2%	2 µM [rising, full curve, poor fit]	2.24 µM [rising, full curve, poor fit]	38.1%
CCNc1ncc2nc(-c3ccc(F)cc3)c(=O)n(Cc3ccc(F)cc3)c2n1	37.2%	14.1 µM [rising, partial curve]	14.1 µM [rising, partial curve]	40.1%
O=C(Oc1ccccc1)N1CCC2(CCCN(c3ncccn3)C2)CC1	9.73%	0.0282 µM [rising, full curve, poor fit]	0.891 µM [rising, full curve, poor fit]	20%
c1csc(CNc2ccnc(-c3ccc4c(c3)OCO4)n2)c1	18.2%	0.355 µM [rising, full curve]	0.355 µM [rising, full curve]	23%
CS(=O)(=O)Nc1cccc(-c2cc(NCc3ccccc3)ncn2)c1	27.5%	2.51 µM [rising, partial curve]	1.58 µM [rising, full curve, poor fit]	30.2%
CN(C)C(=O)c1ccc(-c2cncnc2-n2ccnc2)cc1	30.3%	10 µM [rising, partial curve]	10 µM [rising, partial curve]	41.6%
CN(C)c1ccc(-c2ccc3ncnc(NC4CC4)c3c2)cc1	-2.1%	0.02 µM [rising, full curve]	0.02 µM [rising, full curve]	-2.99%
